Test results as given in article PMC4336329 (PLoS ONE, 2015).
Among all 310,000 compounds or so, about 14,000 (4.5%) showed an effect of 50% or more. Effects have a minus sign here. Some of the results follow.

Each molecule was assayed against human ether-à-go-go-related gene (hERG) potassium channel (human, UniProt Q12809) (assay: primary screen, population patch clamp on CHO cells stably expressing hERG).
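Note: peak tail current of the secondary pulse compared with the same well before compound.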

Sequence of human ether-à-go-go-related gene (hERG) potassium channel (Q12809 whole entry, looked up): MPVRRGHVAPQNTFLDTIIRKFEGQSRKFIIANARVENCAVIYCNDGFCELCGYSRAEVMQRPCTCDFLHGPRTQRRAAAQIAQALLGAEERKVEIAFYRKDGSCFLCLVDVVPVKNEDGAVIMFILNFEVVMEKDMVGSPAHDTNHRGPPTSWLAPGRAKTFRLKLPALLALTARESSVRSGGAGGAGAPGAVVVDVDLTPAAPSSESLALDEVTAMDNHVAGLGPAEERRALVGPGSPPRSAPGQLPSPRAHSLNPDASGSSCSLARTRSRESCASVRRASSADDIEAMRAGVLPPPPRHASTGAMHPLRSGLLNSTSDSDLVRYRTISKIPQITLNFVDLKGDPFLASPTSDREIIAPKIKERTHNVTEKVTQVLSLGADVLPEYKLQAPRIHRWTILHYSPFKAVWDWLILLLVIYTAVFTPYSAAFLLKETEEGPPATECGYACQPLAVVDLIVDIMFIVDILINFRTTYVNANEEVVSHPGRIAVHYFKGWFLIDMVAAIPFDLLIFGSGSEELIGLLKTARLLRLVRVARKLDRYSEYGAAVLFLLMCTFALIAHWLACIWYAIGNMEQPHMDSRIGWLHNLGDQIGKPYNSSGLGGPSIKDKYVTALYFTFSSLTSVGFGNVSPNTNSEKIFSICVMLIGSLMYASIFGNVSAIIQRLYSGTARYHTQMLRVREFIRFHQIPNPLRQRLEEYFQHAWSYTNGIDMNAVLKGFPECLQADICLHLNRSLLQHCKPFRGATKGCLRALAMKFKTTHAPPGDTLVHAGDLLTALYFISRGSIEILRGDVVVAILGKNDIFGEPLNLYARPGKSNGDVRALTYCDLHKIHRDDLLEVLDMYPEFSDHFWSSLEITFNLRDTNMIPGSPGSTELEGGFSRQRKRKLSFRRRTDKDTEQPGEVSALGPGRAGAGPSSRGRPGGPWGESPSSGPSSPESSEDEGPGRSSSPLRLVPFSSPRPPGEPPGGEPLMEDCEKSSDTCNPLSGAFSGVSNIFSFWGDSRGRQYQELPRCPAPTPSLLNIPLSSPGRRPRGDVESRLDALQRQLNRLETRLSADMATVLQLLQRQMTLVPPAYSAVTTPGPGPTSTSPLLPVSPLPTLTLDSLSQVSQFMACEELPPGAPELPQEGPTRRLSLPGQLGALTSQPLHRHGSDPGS

**Q.** `CCN(C(=O)Cc1nc(N)n[nH]1)C1(C(=O)Nc2ccccc2)CCCCC1` was tested. Which “hERG current change (%, negative = inhibition) at 10uM” value did it give?
**A.** Its value is 17.7%.

**Q.** How did the “hERG current change (%, negative = inhibition) at 10uM” value turn out when `CCc1nc(N2CCN(S(C)(=O)=O)CC2)c2c3c(sc2n1)CCCC3` was run?
**A.** Its value is -5.91%.

**Q.** With `COc1cccc(N(C(=O)c2cnccn2)C(C(=O)NC2CCCCC2)c2ccc(Cl)cc2)c1` (centres unmarked) as the molecule, how does the “hERG current change (%, negative = inhibition) at 10uM” value read?
**A.** Its value is -0.326%.

**Q.** `CNc1oc(C)nc1S(=O)(=O)c1ccccc1` was tested. Which “hERG current change (%, negative = inhibition) at 10uM” value did it give?
**A.** Its value is 3.81%.

**Q.** Which “hERG current change (%, negative = inhibition) at 10uM” value does the source give for `CCOC1(OCC)N=C(N)C2(C#N)C(c3cccc(OC)c3OC)C12C#N` (centres unmarked) here?
**A.** Its value is -1.8%.

**Q.** With `Clc1cccc(OCCCCN2CCCCC2)c1` as the molecule, how does the “hERG current change (%, negative = inhibition) at 10uM” value read?
**A.** The value was -36.6%.

**Q.** How did the “hERG current change (%, negative = inhibition) at 10uM” value turn out when `CC(=O)Nc1cccc(NC(=O)CSc2ncc(C(=O)Nc3ccc(F)cc3)c(=O)n2C)c1` was run?
**A.** Its value is -15.8%.

**Q.** With `CCOC(=O)N1CCN(C(=S)Nc2ccc3nc(N4CCN(CC)CC4)cc(C)c3c2)CC1` as the molecule, how does the “hERG current change (%, negative = inhibition) at 10uM” value read?
**A.** Its value is -23.5%.

**Q.** `O=C(Oc1c(CN2CCOCC2)cc(Cl)c2cccnc12)c1ccccc1Br` was tested. Which “hERG current change (%, negative = inhibition) at 10uM” value did it give?
**A.** Its value is -9.21%.

**Q.** With `CCn1c(=O)n(CC)c2cc(N3CCCC3)c(NC(=O)c3ccc(C)c([N+](=O)[O-])c3)cc21` as the molecule, how does the “hERG current change (%, negative = inhibition) at 10uM” value read?
**A.** The value was 9.33%.

**Q.** For `O=C(CCC1CCCC1)NCc1cccs1`, which “hERG current change (%, negative = inhibition) at 10uM” value is on record?
**A.** Its value is 13.9%.

**Q.** `COc1ccc(OCc2nnc(SCC(=O)c3c(N)n(C)c(=O)n(C)c3=O)n2-c2ccccc2F)cc1` was tested. Which “hERG current change (%, negative = inhibition) at 10uM” value did it give?
**A.** The value was 37.1%.

**Q.** Which “hERG current change (%, negative = inhibition) at 10uM” value does the source give for `COc1cc(NC(=O)CC(C)C)ccc1NC(=O)c1ccco1` here?
**A.** The value was -8.72%.

**Q.** For `CCNC(=S)N1CCN(c2nc(CC)nc3sc4c(c23)CCCC4)CC1`, which “hERG current change (%, negative = inhibition) at 10uM” value is on record?
**A.** The value was -15.4%.

**Q.** Which “hERG current change (%, negative = inhibition) at 10uM” value does the source give for `O=C1CCC(C(=O)N2CCCCO2)CN1Cc1cccc(C(F)(F)F)c1` (centres unmarked) here?
**A.** The value was -3.13%.

**Q.** For `COc1ccc(-c2noc(CCC(=O)N3CCC(C)CC3)n2)cc1`, which “hERG current change (%, negative = inhibition) at 10uM” value is on record?
**A.** Its value is -21.9%.

**Q.** How did the “hERG current change (%, negative = inhibition) at 10uM” value turn out when `CCN(CC)CCNC(=S)N1CCn2c(nc3ccccc32)C1` was run?
**A.** Its value is -33.1%.

**Q.** Which “hERG current change (%, negative = inhibition) at 10uM” value does the source give for `Cc1ccc(CC(=O)NC2CCSC2=O)cc1` (centres unmarked) here?
**A.** The value was 15.8%.

**Q.** How did the “hERG current change (%, negative = inhibition) at 10uM” value turn out when `COc1ccccc1N/C(=N/S(=O)(=O)c1ccc(C)cc1)c1ccc(Cl)cc1` was run?
**A.** The value was -47.9%.

**Q.** For `O=C(NC1(C(F)(F)F)NC(=O)N(Cc2cccnc2)C1=O)c1ccncc1` (centres unmarked), which “hERG current change (%, negative = inhibition) at 10uM” value is on record?
**A.** The value was 19.6%.

**Q.** With `O=C(CCN1CCOCC1)NCC(=O)Nc1ccc(Br)cc1C(=O)c1ccccc1` as the molecule, how does the “hERG current change (%, negative = inhibition) at 10uM” value read?
**A.** The value was -49.5%.

**Q.** Which “hERG current change (%, negative = inhibition) at 10uM” value does the source give for `Cc1cnnn1-c1cccc([N+](=O)[O-])c1` here?
**A.** Its value is -9.68%.

**Q.** For `Cc1ccc(-n2nc(-c3ccco3)cc2C(=O)O)cc1`, which “hERG current change (%, negative = inhibition) at 10uM” value is on record?
**A.** Its value is 0.414%.

**Q.** `CCOc1ccc(N2C(=O)CC(N3CCN(c4ccc(C(=O)c5ccncc5)cc4)CC3)C2=O)cc1` (centres unmarked) was tested. Which “hERG current change (%, negative = inhibition) at 10uM” value did it give?
**A.** Its value is -17.2%.

**Q.** How did the “hERG current change (%, negative = inhibition) at 10uM” value turn out when `COc1cc(/C=C/C(=O)c2ccc3c(c2)OCO3)cc(Cl)c1O` was run?
**A.** The value was -3.04%.

**Q.** Which “hERG current change (%, negative = inhibition) at 10uM” value does the source give for `COc1ccc([N+](=O)[O-])cc1NC(=O)CN(C)S(=O)(=O)c1ccccc1` here?
**A.** Its value is -30.3%.

**Q.** For `CCOC(=O)c1ccccc1NC(=O)COC(=O)CCNS(=O)(=O)c1ccccc1`, which “hERG current change (%, negative = inhibition) at 10uM” value is on record?
**A.** The value was -3.26%.

**Q.** `CN1CCCC(OC(=O)c2cc(Cl)ccc2Cl)C1` (centres unmarked) was tested. Which “hERG current change (%, negative = inhibition) at 10uM” value did it give?
**A.** The value was -2.55%.

**Q.** With `CN(C)c1ccc(C(=O)OCC(=O)NCCNC(=O)COC(=O)c2ccc(N(C)C)cc2)cc1` as the molecule, how does the “hERG current change (%, negative = inhibition) at 10uM” value read?
**A.** The value was 18.5%.

**Q.** `CCN(CC(=O)Nc1c(F)cccc1F)C(=O)CCSc1ccc(F)cc1` was tested. Which “hERG current change (%, negative = inhibition) at 10uM” value did it give?
**A.** The value was -7.11%.

**Q.** Which “hERG current change (%, negative = inhibition) at 10uM” value does the source give for `O=C(NCc1cccnc1)C(=O)N/N=C/c1ccccc1[N+](=O)[O-]` here?
**A.** Its value is -10.7%.

**Q.** How did the “hERG current change (%, negative = inhibition) at 10uM” value turn out when `COCCNC(=O)C(=O)N/N=C/c1ccc(C(=O)OC)cc1` was run?
**A.** Its value is 17.6%.

**Q.** With `O=C(NCCSCc1ccco1)Nc1ccccc1` as the molecule, how does the “hERG current change (%, negative = inhibition) at 10uM” value read?
**A.** The value was 17.8%.

**Q.** Which “hERG current change (%, negative = inhibition) at 10uM” value does the source give for `C=C/C(C)=C/CC1C(=C)CCC2C(C)(C(=O)O)CCCC12C` (centres unmarked) here?
**A.** The value was 9.3%.

**Q.** With `CC(C)c1nnc(NC(=O)CCC(=O)Nc2ccc3cn[nH]c3c2)s1` as the molecule, how does the “hERG current change (%, negative = inhibition) at 10uM” value read?
**A.** The value was 9.4%.

**Q.** Which “hERG current change (%, negative = inhibition) at 10uM” value does the source give for `Cn1c(Oc2ccccc2NCc2cccc(Br)c2)cc(=O)n(C)c1=O` here?
**A.** Its value is -21%.

**Q.** How did the “hERG current change (%, negative = inhibition) at 10uM” value turn out when `COC(=O)c1ccc(CSc2nc3ccc(S(N)(=O)=O)cc3[nH]2)cc1` was run?
**A.** Its value is 12.4%.

**Q.** With `Cc1cccn2c(=O)nc(SCC(=O)Nc3cccc4ccccc34)nc12` as the molecule, how does the “hERG current change (%, negative = inhibition) at 10uM” value read?
**A.** Its value is -5.48%.

**Q.** How did the “hERG current change (%, negative = inhibition) at 10uM” value turn out when `COC(=O)C1=C(c2ccc3ccccc3c2)C[C@@H]2CC[C@H]1N2C` was run?
**A.** The value was -15.8%.

**Q.** How did the “hERG current change (%, negative = inhibition) at 10uM” value turn out when `COc1ccc(C(C(=O)NC2CCCCC2)N(Cc2cccs2)C(=O)Cc2c[nH]c3ccccc23)cc1OC` (centres unmarked) was run?
**A.** Its value is -19.8%.

**Q.** How did the “hERG current change (%, negative = inhibition) at 10uM” value turn out when `COC(=O)c1ccccc1Oc1c(F)c(F)nc(N2CCOCC2)c1F` was run?
**A.** Its value is 0.824%.

**Q.** For `CCCCNC(=O)NC(C(N)=O)P(=O)(OCC)OCC` (centres unmarked), which “hERG current change (%, negative = inhibition) at 10uM” value is on record?
**A.** Its value is 7.79%.

**Q.** How did the “hERG current change (%, negative = inhibition) at 10uM” value turn out when `Cn1c(=O)n(Cc2ccco2)c(=N)c2c3c(sc21)CCC3` was run?
**A.** The value was -64.8%.

**Q.** How did the “hERG current change (%, negative = inhibition) at 10uM” value turn out when `Cc1nn(-c2ccccc2)c2sc(C(=O)NNC(=O)COc3ccccc3)cc12` was run?
**A.** The value was -4.96%.
